{"source": "paper PMC12040169", "about": "(PLOS Biology, 2025)", "note": "This is one part of the list."}
{"system": "T1, C. trachomatis L2/434/Bu expressing GFP (CTL2-GFP)", "T1 construct": "L2/434/Bu GFP intracellular growth in HeLa cells", "parameters": "species or system HeLa; C. trachomatis total inclusion area by high-content imaging, normalised to DMSO", "conditions": "total inclusion area; 28.5 h, 10 µM; inhibitor", "summary_of_the_method": "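Host cell viability was gauged from Hoechst-stained nuclei counts, while chlamydial growth was taken from total inclusion area and inclusion number per well. Cells were fixed and imaged by high-content microscopy once bulk GFP and resorufin fluorescence had been measured.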"}
{"smiles": "COc1cc(NC(=O)CSc2ncnc3sc4c(c23)CCCC4)cc(OC)c1", "note": "[CBK267547]", "% of control remaining": 83.1664}
{"smiles": "COc1ccccc1-c1nccnc1NCc1cccs1", "note": "[CBK088682]", "% of control remaining": 78.3203}
{"smiles": "CCc1ncsc1C(=O)NC1CCCN(c2ccn(C)n2)C1=O", "note": "(centres unmarked) [CBK306498]", "% of control remaining": 82.2165}
{"smiles": "COC(=O)CCc1ccc(S(=O)(=O)N2CCCN(Cc3cc(F)cc(F)c3)CC2)cc1", "note": "[CBK062990]", "% of control remaining": 114.852}
{"smiles": "CN(C)CCn1c2c(c3ccccc31)CCCn1cnnc1-2", "note": "[CBK267712C]", "% of control remaining": 93.9788}
{"smiles": "CCc1cn(C[C@H](NC(=O)c2ccco2)C(=O)O)c(=O)[nH]c1=O", "note": "[CBK289670]", "% of control remaining": 106.21}
{"smiles": "CC(C)NC(=O)CN1CCC(Oc2nccnc2OCc2ccc(Cl)c(Cl)c2)CC1", "note": "[CBK153791]", "% of control remaining": 83.6856}
{"smiles": "C/C(=C\\c1ccccc1)CN1CCC(C(=O)N2CCN(Cc3ccc4c(c3)OCO4)CC2)CC1", "note": "[CBK264327]", "% of control remaining": 100.112}
{"smiles": "Cc1cc2c(cc1Cl)C(=O)CC1(CCNCC1)O2", "note": "[CBK282715]", "% of control remaining": 76.237}
{"smiles": "COc1cc(OC)nc(CN2C(=O)C3(CC(=O)N(CCCN4C(=O)c5ccccc5C4=O)C3=O)c3cc(C)ccc32)n1", "note": "(centres unmarked) [CBK075992]", "% of control remaining": 94.5167}
{"smiles": "COc1cc(OC)nc(C(NC(=O)C2CCN(CCc3c[nH]c4ccccc34)CC2)c2ccccc2C)n1", "note": "(centres unmarked) [CBK148101]", "% of control remaining": 69.0413}
{"smiles": "Cn1c(=O)c(-c2ccccc2)nc2ccccc21", "note": "[CBK016192]", "% of control remaining": 94.4605}
{"smiles": "Cc1cc(N2CCCC2)c(F)cc1CN1CCC(O)C(C)C1", "note": "(centres unmarked) [CBK282963]", "% of control remaining": 104.326}
{"smiles": "CN(C)CCCNC(=O)C1CCCCN1S(=O)(=O)c1ccc(C(C)(C)C)cc1", "note": "(centres unmarked) [CBK200070]", "% of control remaining": 89.8642}
{"smiles": "CS(=O)(=O)N(CC(=O)Nc1ccc2c(c1)OCO2)c1ccc(Oc2ccccc2)cc1", "note": "[CBK263989]", "% of control remaining": 112.036}
{"smiles": "CC1CCCN(C(=O)c2cc(-c3ccccn3)n[nH]2)C1C", "note": "(centres unmarked) [CBK283146]", "% of control remaining": 96.8885}
{"smiles": "COc1ccc(Oc2cc(Cl)nc(N)n2)cc1", "note": "[CBK261771]", "% of control remaining": 96.8789}
{"smiles": "O=C(O)c1oc2ccccc2c1CN1CCN(c2ccccc2)CC1", "note": "[CBK286948]", "% of control remaining": 111.993}
{"smiles": "Cc1ccc(-c2nn3c(C)nnc3s2)cc1NC(=O)c1ccc([N+](=O)[O-])o1", "note": "[CBK267247]", "% of control remaining": 77.1078}
{"smiles": "Cc1ccc(NC(=O)c2cncc(-c3ccc(C(=O)N4CCOCC4)cc3)c2)c(O)c1", "note": "[CBK160208]", "% of control remaining": 101.074}
{"smiles": "COc1ccc(F)cc1-c1cccc(CC2(C(=O)NCc3cccs3)CCOCC2)c1", "note": "[CBK285543]", "% of control remaining": 97.0775}
{"smiles": "COc1cc(CNc2cc(-c3ccc(N4CCOCC4)cc3)ncn2)cc(OC)c1OC", "note": "[CBK091174]", "% of control remaining": 135.93}
{"smiles": "COc1cc2c(cc1OC)CN(C(=O)CSc1nc(-c3cccnc3)ccc1C#N)CC2", "note": "[CBK267464]", "% of control remaining": 102.701}
{"smiles": "COc1ccc(Cl)cc1NC(=O)CC(C)(C)CC(=O)O", "note": "[CBK001236]", "% of control remaining": 90.6263}
{"smiles": "COC(=O)CNC(=O)c1nc(SC)ncc1Cl", "note": "[CBK057651]", "% of control remaining": 98.5781}
{"smiles": "Cn1c(=O)n(C)c2cc(CNc3ccc(N4CCOCC4)c(C(=O)O)c3)ccc21", "note": "[CBK269463]", "% of control remaining": 84.6536}
{"smiles": "CC(Sc1nc2ccc(F)cc2c(=O)[nH]1)C(=O)N1CCOCC1", "note": "(centres unmarked) [CBK305958]", "% of control remaining": 91.7971}
{"smiles": "CC(C)NC(=O)NC[C@H]1C[C@@H]2CC[N@]1C[C@@H]2CN1CCN(c2ccccn2)CC1", "note": "[CBK289112]", "% of control remaining": 86.1286}
{"smiles": "COC(=O)CN1N=C(C(C)(C)C)Cn2c(cc3sccc32)C1=O", "note": "[CBK284177]", "% of control remaining": 80.2098}
{"smiles": "COc1ccccc1NC(=O)c1c(NC(=O)c2cc([N+](=O)[O-])ccc2Cl)sc2c1CCCC2", "note": "[CBK263827]", "% of control remaining": 103.741}
{"smiles": "CN(C)C(=O)COc1cccc(Nc2nc(Br)cn3ccnc23)c1", "note": "[CBK037989]", "% of control remaining": 154.889}
{"smiles": "COc1ccc(-c2nc(O)cc(C(F)(F)F)n2)cc1", "note": "[CBK003515]", "% of control remaining": 104.67}
{"smiles": "C=CCn1c(-c2sc(NC(=O)c3[nH]c4c(c3C)C(=O)CC(C)(C)C4)nc2C)n[nH]c1=S", "note": "[CBK297757]", "% of control remaining": 102.32}
{"smiles": "CCc1cc(C(=O)OC)c(NC(=O)CC2NCCNC2=O)s1", "note": "(centres unmarked) [CBK266990]", "% of control remaining": 128.655}
{"smiles": "CCn1c2cc(C)sc2c2cnn(CC(=O)N3CCCC3)c(=O)c21", "note": "[CBK284168]", "% of control remaining": 92.0664}
{"smiles": "CC(C)C(=O)Nc1ccc(-c2ccccc2)c2ccccc12", "note": "[CBK083731]", "% of control remaining": 49.3196}
{"smiles": "O=C(O)/C=N/NC(=O)c1ccco1", "note": "[CBK260923]", "% of control remaining": 94.8743}
{"smiles": "O=S(=O)(c1ccc(F)cc1)N1CCCC1c1cccc(Cc2ccccc2)n1", "note": "(centres unmarked) [CBK286231]", "% of control remaining": 85.3803}
{"smiles": "CC(C)(C)OC(=O)N1CCCC(c2nc3ccccc3cc2N)C1", "note": "(centres unmarked) [CBK284711]", "% of control remaining": 103.854}
{"smiles": "CCCC/C=C/c1cnc(N)c(-c2ccc(C(=O)NCCO)cc2)n1", "note": "[CBK064141]", "% of control remaining": 118.189}
{"smiles": "CS(=O)(=O)c1ccc(-c2c[nH]c([C@@H]3COCCN3Cc3ccccc3)n2)cc1", "note": "[CBK289300]", "% of control remaining": 105.832}
{"smiles": "COc1ccc2nc(O)c(CN(c3ccccc3)S(=O)(=O)c3ccccc3)cc2c1", "note": "[CBK268093]", "% of control remaining": 101.784}
{"smiles": "CC(NC(=O)N1CCN(c2ccccc2)CC1)c1ccccc1", "note": "(centres unmarked) [CBK155207]", "% of control remaining": 83.9498}
{"smiles": "O=C(NCCCn1ccnc1)c1ncoc1-c1ccccc1", "note": "[CBK283887]", "% of control remaining": 69.3907}
{"smiles": "Cc1cc(NC(=O)c2ccco2)c2ccccc2n1", "note": "[CBK116258]", "% of control remaining": 60.9744}
{"smiles": "COc1cc(/C=N/NC(=O)c2nonc2N)ccc1OC(=O)c1cc(F)c(F)cc1Cl", "note": "[CBK262380]", "% of control remaining": 114.049}
{"smiles": "CCOC(=O)c1cnc(Nc2nc3ccccc3o2)nc1CSc1ncccn1", "note": "[CBK268885]", "% of control remaining": 113.413}
{"smiles": "N#Cc1ccccc1OCCO", "note": "[CBK001443]", "% of control remaining": 91.7973}
{"smiles": "C=CCS(=O)(=O)N1CCC(c2nc(C)n3c(C)csc23)CC1", "note": "[CBK285251]", "% of control remaining": 97.384}
{"smiles": "CCOc1cc(C#N)cc(I)c1OCC(=O)O", "note": "[CBK266326]", "% of control remaining": 133.568}
